PubChem BioAssay AID488969 (Vanderbilt High Throughput Screening Facility, 2010)
The full ranking holds about 110,000 compounds; the median of “z-score” is about -0.1, and the highest 2% start at about 2. The list shows a part of the results.

These molecules were tested against Metabotropic glutamate receptor 8 (Rattus norvegicus) (UniProt P70579) (assay: mGluR8 Gi/Go-coupled signaling modulation – cell-based, rat, thallium flux, HTS, primary screen (AID 488969)). Settings: HEK293 rat mGluR8, GIRK (G protein-gated inwardly rectifying potassium channel) thallium flux, FluoZin2; at 10 µM; stronger effect = higher value; submaximal glutamate (EC20) added with thallium.
Chain of UniProt P70579 (P70579 whole entry, looked up): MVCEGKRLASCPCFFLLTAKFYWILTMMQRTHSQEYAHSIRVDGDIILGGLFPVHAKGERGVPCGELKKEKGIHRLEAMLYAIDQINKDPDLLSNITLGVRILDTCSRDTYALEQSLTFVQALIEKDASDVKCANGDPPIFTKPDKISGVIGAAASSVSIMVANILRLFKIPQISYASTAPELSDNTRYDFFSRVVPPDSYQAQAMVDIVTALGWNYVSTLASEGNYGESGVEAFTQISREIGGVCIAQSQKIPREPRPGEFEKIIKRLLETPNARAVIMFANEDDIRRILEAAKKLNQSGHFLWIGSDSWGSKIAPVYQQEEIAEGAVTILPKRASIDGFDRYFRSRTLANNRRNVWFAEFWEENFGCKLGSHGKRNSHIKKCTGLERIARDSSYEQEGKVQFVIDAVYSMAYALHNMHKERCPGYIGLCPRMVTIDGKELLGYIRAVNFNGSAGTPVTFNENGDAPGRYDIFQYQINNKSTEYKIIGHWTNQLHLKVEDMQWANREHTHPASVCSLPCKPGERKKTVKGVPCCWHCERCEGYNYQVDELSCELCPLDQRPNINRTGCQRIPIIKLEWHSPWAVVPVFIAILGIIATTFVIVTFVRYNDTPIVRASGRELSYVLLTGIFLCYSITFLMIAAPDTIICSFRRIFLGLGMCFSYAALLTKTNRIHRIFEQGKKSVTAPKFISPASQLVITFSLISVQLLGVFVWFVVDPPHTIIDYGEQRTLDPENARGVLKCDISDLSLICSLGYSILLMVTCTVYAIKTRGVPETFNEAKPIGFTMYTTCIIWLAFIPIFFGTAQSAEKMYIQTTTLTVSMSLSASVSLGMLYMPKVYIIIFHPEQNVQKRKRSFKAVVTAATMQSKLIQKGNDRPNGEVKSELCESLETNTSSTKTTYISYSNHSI

First: C=C(C)C1CC=C(C)/C(=N/NC(=O)CNc2ccc(C)cc2C)C1 (centres undefined)
Second: Cc1cc(-c2nc3ncccc3o2)ccc1NC(=O)CC(C)C
The z-score of the first is lower: -0.284 for the first, 0.87 for the second.

Compared with `O=C(COC(=O)Cc1ccc(Cl)cc1Cl)Nc1ccccc1OC(F)F`, `O=C(COC(=O)C1=COCCO1)Nc1ccccc1Oc1ccccc1` is lower in z-score: 0.137 for the first, 0.0942 for the second.

Compared with `C=CCn1c(-c2sccc2C)n[nH]c1=S`, `CCOC(=O)c1ccc(NC(=O)CSc2nnc(-c3cccs3)n2CC)cc1` is lower in z-score: -0.312 for the first, -0.889 for the second.

Going from `CCc1ccc(N(C2C=CS(=O)(=O)C2)S(=O)(=O)c2ccccc2)cc1` (centres undefined) to `CCOC(=O)CCCCCN(Cc1ccccc1)S(=O)(=O)c1ccc([N+](=O)[O-])cc1`, the z-score rises from -0.443 to -0.261.

Compared with `Cc1ccc(NC(=O)COC(=O)C2CC2C)c(S(=O)(=O)N2CCCCC2)c1` (centres undefined), `CC1Cc2ccccc2N1S(=O)(=O)c1cccc(C(=O)OCC(=O)NC2CCS(=O)(=O)C2)c1` (centres undefined) is lower in z-score: 2.07 for the first, -0.631 for the second.

Compared with `CCCn1nc(CC(=O)OCC)c2ccccc2c1=O`, `CCOC(=O)Cn1c2c(c(-c3ccccc3OC)cc1=O)CCCC2` is lower in z-score: 0.73 for the first, -0.0532 for the second.

First: COc1ccc(-n2cnnc2SCC(=O)NC2CCS(=O)(=O)C2)cc1 (centres undefined)
Second: COc1ccc(S(=O)(=O)NC(CC(=O)N2CCc3ccccc32)c2ccco2)cc1 (centres undefined)
The z-score of the first is lower: -0.346 for the first, -0.18 for the second.

Compared with `c1ccc(CSc2nnc(-c3cccs3)n2Cc2ccco2)cc1`, `CCOc1ccc2[nH]c(=O)c(CN(Cc3ccco3)C(CC)c3nnnn3Cc3ccccc3)cc2c1` (centres undefined) is higher in z-score: -2.3 for the first, -0.673 for the second.

First: COc1cc(/C=N/NC(=O)c2cc(C34CC5CC(CC(C5)C3)C4)[nH]n2)ccc1O
Second: COc1ccc(O)c(C(=O)c2cc(C#N)c(=O)n(CCN3CCOCC3)c2)c1
The z-score of the first is lower: -0.235 for the first, 0.984 for the second.

Compared with `CCCNC(=O)C1CCN(S(=O)(=O)c2ccc(Br)cc2)CC1`, `COc1ccc(S(=O)(=O)Nc2ccc(NC(C)=O)cc2)cc1` is higher in z-score: 0.249 for the first, 0.624 for the second.

Compared with `Cc1cccc(NC(=O)c2oc(=O)c3ccccc3c2-c2ccccc2)c1C`, `COc1ccc2nc(NC(=O)c3ccc(-c4cccc([N+](=O)[O-])c4)o3)sc2c1` is higher in z-score: -0.014 for the first, 0.0933 for the second.

Going from `COc1ccccc1NC(=S)NC1CCCCCC1` to `O=[N+]([O-])c1cc(CN2CCCC2)c2cccnc2c1O`, the z-score falls from -0.25 to -0.43.

First: O=C1c2ccncc2C(=O)N1Cc1cccc(Cl)c1
Second: O=C(Cn1cnc2sc(-c3ccccc3)cc2c1=O)N1CCOCC1
The z-score of the first is higher: -0.194 for the first, -0.224 for the second.

Compared with `O=C(CN1CCN(c2ccc(O)cc2)CC1)Nc1cc([N+](=O)[O-])ccc1Cl`, `COc1ccc(Cl)cc1N(CC(=O)N/N=C/c1ccc(OC(C)C)cc1)S(=O)(=O)c1ccc(C)c([N+](=O)[O-])c1` is higher in z-score: -0.485 for the first, -0.111 for the second.

Work on `CCCCCCCNC(=O)COc1ccc2c(c1)C(=O)CC(C)(C)O2` yielded a z-score of -0.554.
